Data reported in PubChem BioAssay AID720647 (Broad Institute, 2013).
The campaign covered roughly 380,000 compounds. About 1,300 (0.34%) were called active. Inconclusive results, whose numbers are uncertain, are shown with a selection of clear calls.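 The calls were made as follows: active = drop in luminescence signal, shown as inhibition above about 50% in the replicate tests (limit read from the data, passing the limit was not always enough); inconclusive = probably only some replicates passing the limit; inactive = the rest.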

These molecules were tested on Drosophila bursicon receptor LGR2 (rickets) (assay: inhibitors of bursicon-induced LGR2 CRE-luciferase signal, primary screen, cell-based, HEK293, CRE-luciferase reporter, bursicon stimulation (AID 720647;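 also: agonist challenge used bursicon conditioned medium at about half maximal strength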)). Conditions: bursicon-stimulated, 4 h, at 9.99 µM, stronger effect = higher value.

SMILES	inhibition
Cn1nnnc1SCC(=O)N1CCN(C(=O)c2ccco2)CC1	inconclusive: -5.77%
Cn1ncc(N=Cc2c(O)ccc3ccccc23)c1C(=O)Nc1cccc(Cl)c1	inconclusive: 58.6%
O=C(N/N=C/c1cccs1)c1n[nH]c2c1CCC2	inconclusive: 54.9%
CCOc1cc(/C=N/Nc2cccc(C(=O)O)c2)ccc1OC(=O)c1ccccc1	active: 63.7%
Cc1cccc(-c2ccc([C@H]3[C@@H](CO)N4CCCCN(C(=O)c5cccnc5)C[C@@H]34)cc2)c1	inconclusive: 50.7%
COC(=O)c1cc(=O)n(CCc2ccc(OC)c(OC)c2)c(=Nc2ccc(F)c(Cl)c2)s1	active: 54.7%
CC(C)c1nnc(NC(=O)c2ccc3c(c2)OCO3)s1	active: 74.4%
O=C(Nc1ccc(F)cc1)N1C[C@@H]2N[C@H](C1)C2c1ccc(/C=C/c2ccccc2)cc1 (some centres undefined)	inactive: 18.1%
CCCCCCCCn1c2c(c(=N)c3ccccc31)CCC2	inconclusive: 42.9%
CCOC(=O)c1cn2nc(N3CCCCC3)ccc2n1	active: 88.2%
COc1ccc(/C=N/Nc2nc3ccccc3s2)cc1O	active: 85.9%
N#C/C(=N\Nc1ccc([N+](=O)[O-])cc1)C(N)=S	inconclusive: 57.7%
COc1ccccc1N(Cc1ccccc1)S(=O)(=O)c1cccc(C(=O)Nc2cc(C)ccn2)c1	active: 55.2%
CN1C(=O)c2cc(NS(=O)(=O)c3ccc(F)cc3)ccc2OC[C@@H]2O[C@@H](CC(=O)NCC(F)(F)F)CC[C@@H]21	inactive: -10.8%
Nc1ccc(S(=O)(=O)N2CCCC2C(=O)O)cc1 (centres undefined)	inconclusive: -1.69%
N/C(=N\OC(=O)Cc1ccc([N+](=O)[O-])cc1)c1ccccn1	inconclusive: 71.5%
O=C1c2ccccc2S(=O)(=O)c2cc(N3CCOCC3)ccc21	inconclusive: 70.4%
CCN(CC)c1ccc(/C=N/NC(=O)c2c(Cl)cnn2C)c(O)c1	inactive: -14.5%
CC(=O)Nc1cccc(-c2ccnc3c2CC(C(=O)NCc2cccnc2)O3)c1 (centres undefined)	inconclusive: -29.3%
O=C(Nc1nnc(C2CC2)s1)c1ccccn1	inconclusive: 51%
C[C@@H]1CCCCO[C@H](CN(C)C(=O)Cc2ccccc2)[C@H](C)CN([C@@H](C)CO)C(=O)c2cc(NC(=O)C3CCCCC3)ccc2O1	inactive: 3.73%

SMILES	inhibition
C[C@H](CO)N1C[C@H](C)[C@H](CN(C)C(=O)Nc2ccc(F)cc2)OCCCC[C@H](C)Oc2ccc(NC(=O)Nc3ccc(F)cc3)cc2C1=O	active: 52.8%
CC(C)Oc1ccc(CN2CCC2(C)C(=O)NCc2cccc3ccccc23)cc1 (centres undefined)	inconclusive: 58.5%
COc1cccc(-c2nc3ccccc3s2)c1O	active: 52.9%
CC(=O)Oc1ccc(-c2nc3ccccc3c(=O)o2)cc1	inactive: 15.4%
O=C1C=C(NCCc2cc(Br)c(O)c(Br)c2)C(=O)c2ncccc21	active: 74%
O=c1c2c(nc3n1CCCCC3)sc1c(O)c(Br)ccc12	inconclusive: 56.1%
O=[N+]([O-])c1cc(S(=O)(=O)Oc2ccccc2)ccc1Cl	active: 68%
Cn1nnnc1Sc1ncnc2scc(-c3ccccc3C(F)(F)F)c12	inconclusive: 31.9%
O=C(Nc1ccc(F)cc1)C1C(c2ccccc2)C1(Cl)Cl (centres undefined)	inconclusive: 16.2%
COc1cc2c(cc1OC)C(c1ccc(-c3ccccc3Cl)o1)=NCC2	inconclusive: 52.2%
Cc1nc(NC(=O)/C=C/c2ccccc2)n[nH]1	inconclusive: 57.3%
CCn1cc(S(=O)(=O)Nc2cccnc2)cn1	inconclusive: -10.1%
C[n+]1c(-c2ccccc2)cc2c(=Cc3ccccc3)c3ccccc3n21	inconclusive: 59.4%
CN(C(=O)c1ccc(S(=O)(=O)c2cccc(Cl)c2)c([N+](=O)[O-])c1)C1CCCCC1	inconclusive: 49.8%
Cc1sc2ncnc(Sc3nnnn3-c3ccccc3)c2c1C	active: 66%
COCCNC(=O)c1cn(C)c2ccc(S(=O)(=O)N(C)C3CCCCC3)cc2c1=O	inconclusive: -38.3%
CCOc1ccc(/C=C2\CCc3ccccc3C2=O)cc1	inconclusive: 58.2%
COc1cccc(CNC(=O)[C@H]2[C@H](CO)[C@H]3Cn4c(cccc4=O)[C@@H]2N3C(=O)C2CCCC2)c1	inactive: 29.3%
C/C(=N\Nc1ccc(Cl)c(C(=O)O)c1)c1ccc(N2CCOCC2)cc1	inactive: -46%
c1ccc(-n2cnnc2SCc2cn3cccnc3n2)cc1	inconclusive: 51.2%
COc1ccccc1N1CCN(C(=O)c2sc3nc(-c4ccc(F)cc4)cn3c2C)CC1	inconclusive: 57.6%

SMILES	inhibition
O=C(Nc1ccc2c(c1)OCCO2)c1cc2ccccc2o1	inconclusive: 52%
COc1ccc(-c2[nH]ncc2-c2ccc3c(c2)OCCO3)c(O)c1	inconclusive: 33.7%
Cc1ccc(C(NC(=O)NC(C)c2ccccc2)C(Cl)(Cl)Cl)cc1F (centres undefined)	inconclusive: 29.9%
COc1cccc2c1C(=O)c1c(O)c3c(c(O)c1C2=O)CC(O)(C(C)=NNC(=O)c1ccc(Cl)c(Cl)c1)CC3OC1CC(N)C(O)C(C)O1 (centres undefined)	active: 96.4%
Cc1nn(-c2ccccc2)c(Cl)c1/C=N/Nc1ccc(Cl)c(C(=O)O)c1	inconclusive: -17.4%
CCOc1ccccc1NC(=O)c1cc(-c2cc(OC)c(OC)c(OC)c2)nc2ccccc12	inactive: 13.2%
C[C@@H]1CCCCO[C@@H](CN(C)S(=O)(=O)c2ccc(Cl)cc2)[C@@H](C)CN([C@@H](C)CO)C(=O)c2cc(NC(=O)c3ccncc3)ccc2O1	inactive: -24.2%
COc1ccc(Cl)cc1NC(=S)NNC(=O)c1cccs1	inactive: 7.92%
COCCCNc1ccn2nc(-c3ccccc3)cc2n1	active: 72.1%
Cc1ccc(S(=O)(=O)c2c(C)nn(-c3ccccc3)c2OC(=O)c2ccc(Br)o2)cc1	inconclusive: 2.08%
Cc1cccc(-n2ncc(Cl)c(Cl)c2=O)c1	active: 103%
COc1ccc(Nc2nc3ccc(C)cn3c(=O)c2/C=N/O)cc1	inconclusive: 60.3%
O=C(Nc1ccc(-c2nc3cccnc3s2)cc1)C1CCCO1 (centres undefined)	active: 90.2%
CC1(C)CC(=O)C=C(NC2=CC3OC(c4ccccc4)OCC3OC2=O)C1 (centres undefined)	active: 86%
Cn1ccc2c(-c3ccc(C(F)(F)F)cc3)cc3c(c21)C1CCC3O1 (centres undefined)	inconclusive: -8.92%
CC(=O)c1c(C)[nH]c(C(=O)CN2C(=O)NC(C)(c3ccc(C)cc3)C2=O)c1C (centres undefined)	inconclusive: 54.6%
C=CCOc1ccc(C=CC(=O)c2c(O)c(OC)c(OC)c(OC)c2OC)cc1	inconclusive: 40.2%
COc1cc(Nc2ccc(C(=O)O)cc2[N+](=O)[O-])cc(OC)c1	inconclusive: 6.96%
O=C1C2C(C(=O)N1c1ccccc1)N1CCCN1C2c1ccccc1 (centres undefined)	inconclusive: 52.6%
Cc1ccc(S(=O)(=O)C=CS(=O)(=O)c2ccc(C)cc2)cc1	inactive: 1.49%
CCN(CC)CCCNC(=O)c1sc2ncn(CC(=O)Nc3ccc(C)c(Cl)c3)c(=O)c2c1C	inactive: -5.9%

SMILES	inhibition
CCCCNC(=O)C1(C)CCN1C(=O)c1cc(-c2cccs2)oc1C (centres undefined)	inconclusive: 60.7%
CCCN1C[C@@H](C)[C@H](OC)CN(C)C(=O)c2ccc(NC(=O)C3CCC3)cc2OC[C@@H]1C	inactive: -25.8%
C[C@@H]1CN([C@@H](C)CO)C(=O)c2cc(C#CC3CCCC3)cnc2O[C@@H]1CN(C)Cc1ccncc1	inactive: 9.74%
COc1cccc(C(=O)Nc2ccc3c(c2)OC[C@@H](C)N(CC2CC2)C[C@H](C)[C@H](OC)CN(C)C3=O)c1	inconclusive: -13.8%
COc1ccc(C(=O)NCCC2=CCCCC2)cc1	inconclusive: -37.3%
Cc1cccc(C)c1OCCCN1CCCC1	inconclusive: 51%
Cc1ccc2nc(-c3ccc(NC(=O)COC(=O)c4ccc(=O)[nH]c4)cc3)sc2c1	inconclusive: 58.3%
CC(=C/c1ccccc1)/C=N/NC(=O)c1ccccn1	inconclusive: 51.6%
CCC(C)c1ccccc1NC(=O)COC(=O)CCc1cc(OC)c(OC)c(OC)c1 (centres undefined)	inconclusive: 1.85%
Nc1ccc2nc[nH]c2c1	inconclusive: 52.3%
C[C@@H]1CN([C@H](C)CO)C(=O)c2cc(NC(=O)NC3CCCCC3)ccc2O[C@H]1CN(C)Cc1ccccc1	inactive: 14.6%
CCOc1cccc2sc(Nc3nc4ccc(NC(C)=O)cc4s3)nc12	inconclusive: 45.6%
COc1ccccc1N(C(C)=O)C1=C(Cl)C(=O)c2ccccc2C1=O	inconclusive: 20.8%
CN(C)c1ccc(C=c2c3ccccc3n3c2c2c([n+]3C)CCCC2)cc1	active: 32%
O=C(O)c1ccc2oc(=O)c(S(=O)(=O)c3ccc(F)cc3)cc2c1	inactive: 5.58%
CS(=O)(=O)N1CC(=O)N2[C@H](CO)[C@H](c3ccc(C#Cc4cccc(F)c4)cc3)[C@@H]2C1	inactive: -22.6%
CCOC(=O)c1cnc2c([N+](=O)[O-])cnn2c1C	inactive: 14.2%
CCN1CCC(O)(/C=C/c2ccc(C)cc2)C(C(=O)/C=C/c2ccc(C)cc2)C1 (centres undefined)	inconclusive: 56.5%
C[C@@H]1CN([C@@H](C)CO)C(=O)c2cc(NS(=O)(=O)c3ccc(F)cc3)ccc2O[C@H]1CN(C)Cc1ccc(-c2ccccc2)cc1	inconclusive: 0.194%
COc1ccc(CN([C@H](CO)CC(C)C)S(=O)(=O)N(Cc2ccccc2)[C@H](CO)CC(C)C)cc1	inconclusive: 54.5%
CC(=O)Nc1ccc(NC(=O)c2ccccc2Br)cc1	inactive: 10.8%
